# ± gives the standard deviation. The full ranking holds about 6,600 sequences; the median of “pre-steady-state target cleavage rate” is about 0.07, and the highest 2% start at about 0.72. This is a selection; strong and weak results do not stand in their true shares.
# Tested on: MIWI (PIWIL1) piRISC loaded with Kctd7 piRNA (30 nt)
# Assay: pre-steady-state target cleavage rate (min^-1); MIWI and MILI are mouse PIWI proteins and EfPiwi is from a freshwater sponge; tags in brackets are library labels; higher = faster piRNA-guided slicing of the target
# Settings: guide: Kctd7 piRNA 5'p-UGUUAAUCUCUCAGAGAAGGUGACAGUGAU; auxiliary factor: 500 nM mouse GTSF1
# In short: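 In HEPES–potassium acetate buffer at 33 °C, […] transcribed, DNA-blocked target RNA library was mixed with 1 nM active affinity-purified piRISC carrying one synthetic guide, with or without 500 nM GTSF1 partner protein, for 0–8 or 0–960 min. Uncleaved targets were sequenced and normalised to depth and to weakly complementary targets; three trials were pooled and k3 was capped at 0.0001 min^-1. The pre-steady-state cleavage rate followed from a burst-and-steady-state fit.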
# 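Note: 1 nM active piRISC with 0.1 nM target library at 33 °C single turnover.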
row,Sequence,pre-steady-state target cleavage rate
1,UACACUGACACCUUCUCUGAGAGAUUUACA,0.26 ± 0.047
2,UUCACUGUCUACCUUCUCUGAGAGAUUAACA,0.208 ± 0.022
3,UAGUGAGUCACCUUCUCAGACAGAUUAACA,0.0874 ± 0.012
4,UAGUGACUCACCUUCUCUCUGAGAUUAACA,0.00487 ± 0.0025
5,UAGUGAGUCACGUUGUCUGAGAGAUUAACA,0.271 ± 0.019
6,UAGUGACAGACCUUCUCUGUGAGAUUAACA,0.0331 ± 0.0061
7,UUCACUGUCACCUUCACUGAGUGAUUAACA,0.0312 ± 0.0058
8,UAGACUGUGACCUUCUCUGAGAGAUUAUGA,0.0913 ± 0.021
9,UAGUGACUCACCUUCUCUGACUGAUUAACA,0.00516 ± 0.0026
10,UAGUGAGUCACCUAGACUGAGAGAUUAACA,0.0104 ± 0.0023
11,UAGACUGUGUGCUUCUCUGAGAGAUUAUGA,< 0.0001
12,UAGACUGUCACCUUCUCUGUGAGAUUAUGA,0.0182 ± 0.0051
13,UUCACUGUCACGUUCUCUGACAGAUUAACA,0.0793 ± 0.011
14,AUCACUGUCACCUAGUCUGAGAGAUUAAGA,0.141 ± 0.026
15,AUGACUGUCACCUUCUCUGAGAGAAUAACA,0.381 ± 0.061
16,UACACUGUCACCUUCUCCGAGAGAUUAACA,0.351 ± 0.051
17,UAGUCUGUCAGCCUUCUCUGAGAGAUUAACA,0.204 ± 0.018
18,UAGACUGUCACCUUCUGUGACAGAUUAACA,0.0523 ± 0.011
19,AUCACUGUCACCUUCUCAGAGUGAUUAACA,0.0228 ± 0.0053
20,AUCACUGUCACCUUCUCUGAGACUUUAACA,0.0319 ± 0.0087
21,AUCACUGUCACCAUCUCUGAGAGAUUUACA,0.357 ± 0.048
22,UUCACGUGUCACCUUCUCUGAGAGAUUAACA,0.518 ± 0.024
23,AUCACUGUCUCCUUCUCUGAGAGAUUAAGA,0.0948 ± 0.02
24,UAGUGACAGUCCUUCUCUGAGAGAUGUAACA,0.0173 ± 0.0054

row,Sequence,pre-steady-state target cleavage rate
1,UAGACUGUCAGGUUCUCUGAGAGAUUAUGA,0.00393 ± 0.0024
2,UAGUGAGUCACCUCCUCUGAGAGAUUAACA,0.705 ± 0.04
3,UAGUGACAGUCCUUCUCUGUGAGAUUUACA,0.0113 ± 0.003
4,UACACUGUCACCUUCACUGAGAGAUAUUGA,0.144 ± 0.046
5,UAGUGAGUCACCUACUCUGAGAGAUUAUGA,0.0516 ± 0.013
6,UACACUGUCACCUUCUCUGAGAGAUGUAACA,0.386 ± 0.051
7,UAGUGACUCACCUAGUCUGAGAGAUUAACA,0.0555 ± 0.0059
8,AUCACUCUCACCUUCUCUGAGACAUUAACA,0.358 ± 0.029
9,UAGUGACACACGUUCUCUGAGAGAUUAACA,0.405 ± 0.038
10,UAGUGAGUCACCUGUCUCUGAGAGAUUAACA,0.465 ± 0.038
11,UAGUCUGUCACCUACUCUGAGAGAUUAAGA,0.115 ± 0.019
12,UAGUGUGUGACCUUCUCUGUGAGAUUAACA,0.206 ± 0.016
13,UAGACUGGCACCUUCUCUGAGAGAUUAACA,0.266 ± 0.054
14,UACACUGUCACCUUCUCUGAGAGAUUAAUCA,0.271 ± 0.036
15,UUCACUGUCACCAUCUCUGAGAGAAUAACA,0.251 ± 0.043
16,UACACUGUCACCUUCUCUCAGAGAUUUUGA,0.0196 ± 0.0096
17,UAGUGACAGUGGAAGUCUGAGAAUUAACA,< 0.0001
18,UAGUGACAGUGGUUCUCUGAGAGAUUAACC [g2:g18:cont:t1C],< 0.0001
19,UUCACUGUCACCUUCUCUAGAGAGAUUAACA,0.0879 ± 0.032
20,UAGUCUGAGUCCUUCUCUGAGAGAUUAAGA,0.0109 ± 0.003
21,UAGACUGACACCUUCUGUGAGAGAUUAACA,0.363 ± 0.022
22,UACACUCACACCUUCUCUGAGAGAUUAACA,0.558 ± 0.046
23,UAGUGACACACUCUUCUCUGAGAGAUUAACA,0.239 ± 0.031
24,UAGACUGUCACCUUCUCUUAGAGAUUAACA,0.344 ± 0.017

row,Sequence,pre-steady-state target cleavage rate
1,UAGUGACUCACCUUCGUCUGAGAGAUUAACA,0.0106 ± 0.0031
2,UUCUCUGUCACCUUCUCUGUGAGAUUAACA,0.259 ± 0.016
3,UUCAGUGUCACCUUCUCUGUGAGAUUAACA,0.198 ± 0.014
4,AUCACUGUCUACCUUCUCUGAGAGAUUAACA,0.24 ± 0.026
5,UAGUGACAGUGGAAGAGACUCAGAUUAACA,< 0.0001
6,UUCACUGUCACGAUCUCUGAGAGAUUAAGA,0.0736 ± 0.011
7,UAGUGACACACCUUGUCUGAGAGAUUUACA,0.0291 ± 0.01
8,UAGUGUGUCACCUUCGCUGAGAGAUUAACA,0.294 ± 0.029
9,UACACUGUCACCUUCUCUGAGAGAGUAACA,0.299 ± 0.042
10,UAGUGACAGUGGAAGAGAGAGAGAUUUAACA,< 0.0001
11,UAGUGACACACCUUCUCUGAGUGAUUUACA,0.0088 ± 0.0047
12,UAGUGACACACCUAUCUCUGAGAGAUUAACA,0.163 ± 0.019
13,AUCACUCUCACCUUCUCUGUGAGAUUAACA,0.221 ± 0.012
14,UAGUGAGUCACCUUCUCUGGGAGAUUAACA,0.388 ± 0.02
15,UACACUGUCACCUUCACUGAGAGAAUAACA,0.178 ± 0.04
16,UAGACUGUCACCUUCUCUGAGAGAUUAAUCA,0.407 ± 0.047
17,UUCACUGUCACCUUCUCUGAGAGAUGAACA,0.172 ± 0.029
18,UAGUCUGUCAGCUUCUCUGAGAGAUAAACA,0.24 ± 0.027
19,UAGUGACACACCUUCUCUGAGAGAUUACA,0.0728 ± 0.023
20,UAGUGAGUCACCUUCUCAGAGAGAUUAUGA,0.0274 ± 0.01
21,UAGUGUGUCACCUUCUCUGUGAGAUAAACA,0.0888 ± 0.01
22,UUCACUGACACCUUCUCUGACAGAUUAACA,0.332 ± 0.016
23,UACACUGUCACCUUCUCUGAGAGACUUAACA,0.355 ± 0.043
